First the molecules themselves.
B1: OR4K15 (parent)
chain: GUUAACGGUCAUAGGCCAUGGAAACUAGGAGCACCAUUUCGCUGCCAGUGAAGAAAUGAACAAAGAAAAUCUGGGCCAGGCAGGCAUCAAAAGAAAUAGUCUUGCGCUCAACCAGAAAGUCUGUAAUCAUUUUAAGGGUA

The source gives no read counts; variants with many changes may rest on few reads.

The results in this text go back to the RNAGym collection of RNA variant scans (doi:10.7554/elife.90254).

The data set covers variants of B1. The experiment in a line: self-cleavage, relative activity (ratio to wild type); higher = more cleavage; in vitro, sequencing; the parent is a self-cleaving ribozyme.
Regarding A30G A55G A66G A116G, the self-cleavage worked out at 0.72. A30G A89G U102C U108C U120C: the self-cleavage was 0.

As for U26C A96G A114U, the self-cleavage was 0.06. As for U26C A47G C112U U132C, the self-cleavage worked out at 0.01. As for A30G U87A A111G A125G, the self-cleavage came out at 0.

In the case of A30G U103A G137A, the self-cleavage came to 0.83. As for A27G A59G U131C, the self-cleavage was found to be 1.23. Take A30G A92G A118G: the self-cleavage came out at 0.46.

For the variant A27G A59U A68G A91G, the self-cleavage came to 1.05. Consider G29A A86U A116G, for which the self-cleavage stood at 0.56. For A27U A55G A117G the value was 1.68; for U26C A52G U97C, 1.49. Regarding A30G A118G U127C A134G, the self-cleavage stood at 0.52. With A27G A118G U122G U132C, the self-cleavage was found to be 1.52.

Turning to U26C A69G A91G G99U, the self-cleavage amounted to 0.15. In the case of A27C A64G A68G, the self-cleavage stood at 1.31.

Consider U26C U49A U70C A92G, for which the self-cleavage was found to be 0.42. For the variant A30G U38C U122C U132C, the self-cleavage came out at 0.65. For A27U A92G G106A, the self-cleavage was 0.02. For A27C G28U U87C A94G the value was 0.83. The result for A27G C45U A54G A68G reads 0.78; that for A30G A59U U122A, 1.33.

For the variant A30G A47U A90G, the self-cleavage was determined as 0.57. Turning to A30G A118G A126G, the self-cleavage came out at 0.35. Consider A30G U49C A82G U103C U130C, for which the self-cleavage is 1.27. In the case of A27G A82G U100C, the self-cleavage is 1.6. As for A27C A52G A67G G73A, the self-cleavage came out at 0.26. For U26C A36G A54G A63U U100C A110G U120C G123A the value was 0.52; for A30G U49C A110C, 0.32. In the case of A27U U131A A140U, the self-cleavage turned out to be 0.9. In the case of G28C A95G U132C, the self-cleavage amounted to 2.89. Take A27U A52G U130C: the self-cleavage was determined as 1.15. Regarding U26C A67G U122C, the self-cleavage was 0.75. As to A30G A52C A55C U127C, the self-cleavage came to 1.02. Consider A30G U102A U108C U130C, for which the self-cleavage was found to be 0.

As to A27U A51G A59U G79U A90G U124A, the self-cleavage came out at 0.12. For the variant A30G A59G U132C, the self-cleavage was 2.03. For A27G U39C U57A A60G U130G, the self-cleavage amounted to 0.87. Regarding A27U A82G A92G A135G, the self-cleavage came to 0.41. As to A27U A89C U120A U122C, the self-cleavage turned out to be 1.38. In the case of A27G A64G A68G A90G, the self-cleavage worked out at 0.71. Regarding A30G C35U A62G A66U A140G, the self-cleavage stood at 0.94. Turning to A30G A96G A125G U139C, the self-cleavage came to 0.64. As to A30G U87C A95G, the self-cleavage amounted to 1.65. For A27G A86G A90G A92G the value was 0.95. For A27U A67G A96U U100A A135G the value was 0.37. With A30G U39C C40A U127A, the self-cleavage was found to be 1.98.

Take G29U C32U A91G: the self-cleavage is 1.22. For the variant A27G A33U A56G U70C, the self-cleavage worked out at 0.84. As to G28A U43C C88U A129G, the self-cleavage was determined as 0.32. As to U26C U122C A125G, the self-cleavage amounted to 0.28. Turning to A30G A59U A111G, the self-cleavage is 0. The result for A30G A96G U122A reads 0.67; that for A30G U38C A55G A140U, 0.8; that for G28A A67U A86G, 2.34. On to A30G A69G A82G U87C, for which the self-cleavage was 0.45. For A27U A62U A63G A117U, the self-cleavage was 1.03.

Consider A30G U43C A64G A82G, for which the self-cleavage was found to be 0.33. With G28U U37C A47G A64G, the self-cleavage amounted to 1.01.

As for A27U A60U U87C A114U, the self-cleavage amounted to 0.09. Turning to U26C A54G G65A, the self-cleavage was 1.78. For the variant U26C A36G A59G U72C A82G, the self-cleavage came out at 0.33.

U26C A54G A62U: the self-cleavage was found to be 0.92. On to A27G U43C U102C U122C, for which the self-cleavage is 0.82. Consider U26C U38G U49A A55G A69U, for which the self-cleavage amounted to 1. With A27G C46U A116G, the self-cleavage was 0.65. Take A30G C42U A47G U72C U120C: the self-cleavage was determined as 0.2. The result for U26C A33G U39C A54G A69G U87G reads 0.21; that for A27G U131C U133A, 0.51. For the variant A30G A51U A117U, the self-cleavage came out at 1. For A30G A63G A117G, the self-cleavage amounted to 2.22. With A30G A95G U103C C105U A118G, the self-cleavage came out at 0.07. Turning to A30G U39A A62C U70C G74A U100A, the self-cleavage is 0.09. Turning to A30G U37C U38C A96U, the self-cleavage came to 1.13.

Consider A30G U70C U72A, for which the self-cleavage came to 0.18.

With A27G A78G A82G U87C U103C, the self-cleavage was found to be 0.21.

For A30C U37C A96U A110G, the self-cleavage was 0.11. For A30G G41A A55U U108A U120C the value was 0.01; for A30G A60U A92G U97A A116G U131C A135G, 0.34; for U26C C32U A82G, 0.63. Turning to A30G C61U A96G, the self-cleavage stood at 1.44. G29A A33C A36G A55G A117U: the self-cleavage came out at 0.94. The result for A30G U37C A78C A95G A114U A118G reads 0.08.
